Measured values: patent US20220023399A1, “BLOOD COMPONENT POTENTIATION OF LYTIC PROTEIN ANTI-BACTERIAL ACTIVITY AND METHODS AND USES THEREOF” (priority 2017, published 2022)

Tested on: S. aureus strain MW2
Experiment: Lytic assay (loss of optical density) and specific activity
Settings: in the absence of PlySs2 (CF-301); all concentrations tested
Experimental: The effect of HuLYZ and HSA on PlySs2 (CF-301) activity was examined using additional formats. First, the time-kill assay was used to combine a sub-MIC amount of PlySs2 (CF-301) with a range of HuLYZ concentrations from 1-35 μg/mL (FIG. 8A). While HuLYZ alone has no anti-staphylococcal activity (21), the concentration in human blood is reported to vary between 1 and 35 μg/mL (22). At HuLYZ concentrations above 5 μg/mL a synergistic interaction was detected based on ≥2-log 10 CFU/mL reductions at 24 hours for the combinations compared to PlySs2 (CF-301) alone. In a second in vitro assay based on loss of optical density in a treated culture, the addition of both HuLYZ (FIG. 8B) and HSA (FIG. 8C) across a range of concentrations stimulated high-level PlySs2 (CF-301) activity. […]
Lytic assays. […] Samples were mixed and optical density at 600 nm (OD600) was followed for 15 minutes at room temperature in a SpectraMax M5 Microplate Reader (Molecular Devices).
A variation of the lytic assay was performed to determine PlySs2 (CF-301) specific activity. […] Each plate was read at 600 nm for 15 minutes (shaking for 3 seconds between reads) at room temperature using a microplate reader as above. The specific activity in Units/mg of PlySs2 (CF-301) was determined based on the PlySs2 (CF-301) dilutions displaying curves just above and below the optical density that is 50% of the buffer control at 15 minutes.

HSA: human serum albumin, purified or recombinantly expressed; SEQ ID NO:1
antibacterial activity of the blood component alone: no antibacterial activity
